# From PubChem BioAssay (NCATS)
# Values joined by “and” are separate entries in the source; they are usually repeats but may differ in a detail not shown here. Identical values can stand only once. This list was built around the results that the source calls inconclusive (neither active nor inactive); the mix of calls is not that of the screen. For part of these data: Potencies of inconclusive entries are doubtful fits and often do not repeat. Active and inactive are the calls of the source. The call rests on the fitted dose curve; in most records, active means well fitted curve in the direction sought with a large enough effect; inconclusive means small, poorly fitted or top-dose-only effect, or another doubt; inactive means no such curve, though single readings can be large; an effect the other way counts as inactive or inconclusive.
# Key:
# [1] = NS1 protein of Zika virus - qHTS assay to identify small molecule inhibitors in human HEK 293 cells (AID 1347053); further: nearly all actives have a fitted effect of over 55% in size
# Procedure, shortened: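 HEK 293 cells pretreated with compound for 1 h, then infected with ZIKV MR766 (MOI 0.5) for 24 h at 37 C. NS1 detected by TR-FRET with two anti-NS1 antibodies; normalized to uninfected (0%) and infected (100%) wells.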
# [2] = qHTS of pediatric cancer cell lines to identify multiple opportunities for drug repurposing: Primary screen for DAOY cells (AID 1347090); conditions: DAOY medulloblastoma viability, CellTiter-Glo luminescence, 48 h; activity change, negative = cytotoxic: at 46 µM (top of the series); further: nearly all actives have a fitted effect of over 55% in size
# Procedure, shortened: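 Cell viability, CellTiter-Glo luminescence; 500-1,000 cells/well, 8- or 11-point titration, 48 h compound exposure at 37 degrees C, 5% CO2. Controls: DMSO neutral, bortezomib 2.3 µM final as positive.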
# [3] = qHTS of pediatric cancer cell lines to identify multiple opportunities for drug repurposing: Primary screen for BT-37 cells (AID 1347094)
# Procedure, shortened: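 Cells seeded at 500-1,000 cells/well in growth media, rested 5 hours at 37 degrees C, 5% CO2, then dosed; MIPE compounds at 11-point (from 0.78 nM) and NPC at 8-point (from 0.59 nM) final concentrations. Viability by CellTiter-Glo luminescence after 48 hours.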
# [4] = qHTS of pediatric cancer cell lines to identify multiple opportunities for drug repurposing: Primary screen for U-2 OS cells (AID 1347096); further: nearly all actives have a fitted effect of over 50% in size
# Procedure, shortened: (§1)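 Cells (500-1,000/well) rested 5 h, then received compounds for 48 h; metabolically active cells were measured by CellTiter-Glo luminescence. Final concentrations spanned up to 46 µM (MIPE, 11-point) or 0.59 nM-46 µM (NPC, 8-point) in primary screens, 11-point in follow-ups.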
# [5] = qHTS of pediatric cancer cell lines to identify multiple opportunities for drug repurposing: Primary screen for LAN-5 cells (AID 1347100)
# Procedure, shortened: as §1
# [6] = Quantitative High-Throughput drug screen in 47 multiple myeloma cell lines against the NCATS MIPE library collection: KHM11_PLB cell viability assay (AID 1918962); conditions: KHM11 myeloma cell viability, CellTiter-Glo ATP luminescence, 48 h; viability, % of DMSO control: at 45.8 µM (top of the series); further: nearly all actives have a fitted effect of over 35% in size
# Procedure, shortened: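 Primary qHTS used for cherry-picking: cells at 500/well, library compounds for 48 h (37C, 5% CO2), luminescent ATP assay.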
# [7] = Quantitative High-Throughput drug screen in 47 multiple myeloma cell lines against the NCATS MIPE library collection: OCIMY1_PLB cell viability assay (AID 1918979); further: nearly all actives have a fitted effect of over 35% in size
# Procedure, shortened: (§2)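 Plated at 500 cells per well, myeloma lines received MIPE 4.0 compounds by pin tool. Following 48 h culture at 37 °C, CellTiter-Glo luminescence gave viability relative to DMSO and media-only controls.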
# [8] = Quantitative High-Throughput drug screen in 47 multiple myeloma cell lines against the NCATS MIPE library collection: KMS34_JCRB cell viability assay (AID 1918985); further: nearly all actives have a fitted effect of over 40% in size
# Procedure, shortened: as §2
# [9] = Quantitative High-Throughput drug screen in 47 multiple myeloma cell lines against the NCATS MIPE library collection: SKMM1_PLB cell viability assay (AID 1919863); conditions: SKMM1 myeloma viability, CellTiter-Glo ATP, 48 h; viability: stronger effect = lower value; further: nearly all actives have a fitted effect of over 35% in size
# Procedure, shortened: as §2
# [10] = Quantitative High-Throughput drug screen in 47 multiple myeloma cell lines against the NCATS MIPE library collection: UTMC2_PLB cell viability assay (AID 1919868); conditions: CellTiter-Glo ATP luminescence, 48 h; viability (% of DMSO control): at 45.8 µM (top of the series); further: nearly all actives have a fitted effect of over 55% in size
# Procedure, shortened: as §2
# KB-3-1 = assay: Cytotoxic Profiling of Annotated Libraries Using Quantitative High-Throughput Screening (AID 1296008); conditions: Five cell lines viability, CellTiter-Glo ATP luminescence, 48-72 h; max response: stronger effect = lower value; further: nearly all actives have a fitted effect of over 60% in size
# Procedure, shortened: (§3)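 Cytotoxicity was measured as CellTiter-Glo ATP luminescence, read after 10 min at room temperature. Compound treatment of the cells lasted 48 or 72 hr at 37 degrees Celsius in a qHTS format.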
# NIH3T3 = assay: as above; conditions: Five cell lines viability, CellTiter-Glo ATP luminescence, 48-72 h; max response: stronger effect = lower value
# Procedure, shortened: as §3
# MCC-13 = assay: qHTS assay to identify novel small-molecules to repurpose for Merkel cell carcinoma treatment (AID 1296009); conditions: MCC and control cell lines, CellTiter-Glo viability, 72 h; series mostly up to 46 µM; further: nearly all actives have a fitted effect of over 60% in size; on activity change, negative = cytotoxicity: on the % scale 0 is the no-effect control and ±100 the full control effect
# Procedure, shortened: (§4)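 After compound transfer in DMSO, plates were kept 72 hr at 37 degree celsius. Luminescent ATP signal from CellTiter-Glo served as viability measure, normalized against DMSO and no-cell controls.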
# MKL-1 = assay: as above; conditions: MCC and control cell lines, CellTiter-Glo viability, 72 h; activity change, negative = cytotoxicity: at 46 µM (top of the series)
# Procedure, shortened: as §4
# UISO = assay: as above; conditions: MCC and control cell lines, CellTiter-Glo viability, 72 h; activity change, negative = cytotoxicity: at 46 µM (top of the series)
# Procedure, shortened: as §4
# [11] = Quantitative High-Throughput drug screen in 47 multiple myeloma cell lines against the NCATS MIPE library collection: Karpas417_ECACC cell viability assay (AID 1918961); conditions: Karpas417 myeloma viability, CellTiter-Glo ATP luminescence, 48 h; viability (% of DMSO): at 45.8 µM (top of the series)
# Procedure, shortened: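 We plated 500 myeloma cells per well, pinned in MIPE 4.0 compounds, and incubated for 48 hours at 37C. ATP was then quantified with CellTiter-Glo, with DMSO and media-only wells defining 100% and 0%.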
# HaCat = assay: Cytotoxic Profiling of Annotated Libraries Using Quantitative High-Throughput Screening (AID 1296008); conditions: Five cell lines viability, CellTiter-Glo ATP luminescence, 48-72 h; max response: stronger effect = lower value; further: nearly all actives have a fitted effect of over 60% in size
# Procedure, shortened: as §3
# MKL-2 = assay: qHTS assay to identify novel small-molecules to repurpose for Merkel cell carcinoma treatment (AID 1296009); conditions: MCC and control cell lines, CellTiter-Glo viability, 72 h; activity change, negative = cytotoxicity: at 46 µM (top of the series); further: nearly all actives have a fitted effect of over 60% in size; on activity change, negative = cytotoxicity: on the % scale 0 is the no-effect control and ±100 the full control effect
# Procedure, shortened: as §4
# WaGa = assay: as above; conditions: MCC and control cell lines, CellTiter-Glo viability, 72 h; series mostly up to 46 µM
# Procedure, shortened: as §4
# SKOV3 = assay: Primary qHTS to identify gynecologic anti-cancer compounds using libraries of approved drugs and bioactive compounds (AID 1345084); conditions: Gynecologic cancer cell panel viability, ATPlite luminescence, 48 h; series mostly up to 57.5 µM; further: nearly all actives have a fitted effect of over 55% in size
# Procedure, shortened: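 ATP-based viability (ATPlite), 1,000 cells/well, 16 h pre-incubation, 48 h compound at 37 C, 5% CO2, 15 min RT before read.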
# Potency means the concentration at half of the fitted maximal effect; tags describe the fitted curve by direction and shape.
smiles,measurement,setting,value
Cc1cccc(C=NNc2cc(N3CCOCC3)nc(OCCc3ccccn3)n2)c1,Potency,[1],active: 23.5 µM
same,Potency,[2],"inconclusive: 14.8 µM [cytotoxic, partial curve]"
same,Potency,[3],"inconclusive: 15.3 µM [cytotoxic, partial curve]"
same,Potency,[4],"inconclusive: 18.7 µM [cytotoxic, partial curve]"
same,Potency,[5],"inconclusive: 18.7 µM [cytotoxic, partial curve]"
same,Potency,[6],"inconclusive: 3.3 nM [rising, full curve, poor fit]"
same,Potency,[7],"inconclusive: 10.5 µM [cytotoxic, partial curve]"
same,Potency,[8],"inconclusive: 13.2 µM [cytotoxic, partial curve, poor fit]"
same,Potency,[9],active: 16.6 µM
same,Potency,[10],"inconclusive: 26.4 µM [cytotoxic, single point]"
same,Potency,KB-3-1,"inconclusive: 18.7 µM [inhibitor, single point]"
same,Potency,NIH3T3,"inconclusive: 0.235 µM [inhibitor, full curve]"
same,Potency,MCC-13,inactive
same,Potency,MKL-1,active: 20.9 µM
same,Potency,UISO,"inconclusive: 14.8 µM [inhibitor, partial curve]"
CC(C)OC(=O)C1=CN(C(=O)c2ccc(F)c(F)c2)CC(C)(C)c2c1[nH]c1ccccc21,Potency,[11],"inconclusive: 5.26 µM [rising, partial curve, poor fit]"
same,Potency,[6],"inconclusive: 46.9 nM [rising, partial curve, poor fit]"
same,Potency,[7],"inconclusive: 0.0047 µM [rising, full curve, poor fit]"
same,viability,[9],inactive: 104%
same,Potency,[10],inactive
same,Potency,HaCat,"inconclusive: 14.6 µM [inhibitor, partial curve]"
O=C1Nc2ccc(Cl)cc2[C@@](C#CC2CC2)(C(F)(F)F)O1,Potency,[2],"inconclusive: 26.6 µM [cytotoxic, single point]"
same,Potency,[3],"inconclusive: 38.9 µM [cytotoxic, single point]"
same,Potency,NIH3T3,"inconclusive: 23.1 µM [inhibitor, single point]"
same,Potency,MCC-13,"inconclusive: 33.5 µM [inhibitor, single point]"
same,Potency,MKL-1,"inconclusive: 18.8 µM [inhibitor, single point]"
same,Potency,MKL-2,"inconclusive: 29.9 µM [inhibitor, single point]"
same,Potency,UISO,"inconclusive: 21.1 µM [inhibitor, single point]"
same,Potency,WaGa,"inconclusive: 18.8 µM [inhibitor, single point]"
same,Potency,SKOV3,"inconclusive: 39.8 µM [cytotoxic, single point]"
Cc1[nH]c2ccccc2c1CCNCc1ccc(C=CC(=O)NO)cc1,Potency,[1],"inconclusive: 33.2 µM [inhibitor, single point]"
same,Potency,[2],active: 0.469 µM
same,Potency,[4],active: 0.469 µM
same,Potency,[9],active: 0.105 µM
same,Potency,KB-3-1,active: 0.148 µM
same,Potency,MCC-13,active: 0.833 µM
same,Potency,WaGa,active: 0.059 µM
C=CC(=O)N1CCC[C@@H](n2nc(-c3ccc(Oc4ccccc4)cc3)c3c(N)ncnc32)C1,Potency,[1],"inconclusive: 37.2 µM [inhibitor, single point]"
same,Potency,[3],"inconclusive: 7.69 µM [cytotoxic, partial curve]"
same,Potency,NIH3T3,"inconclusive: 37.2 µM [inhibitor, single point] and inconclusive: 29.1 µM [inhibitor, single point]"
same,Potency,WaGa,"inconclusive: 14.8 µM [inhibitor, partial curve]"
same,Potency,SKOV3,"inconclusive: 39.8 µM [cytotoxic, single point]"
O=C(NCCCNc1nc(Nc2cccc(NC(=O)N3CCCC3)c2)ncc1I)c1cccs1,Potency,[1],"inconclusive: 37.2 µM [inhibitor, single point]"
same,Potency,[2],active: 14.8 µM
same,Potency,[5],active: 0.833 µM
same,Potency,[8],active: 1.05 µM
same,Potency,[10],"inconclusive: 1.87 µM [cytotoxic, full curve, poor fit]"
same,Potency,HaCat,active: 18.7 µM
same,Potency,MKL-1,"inconclusive: 5.26 µM [inhibitor, full curve]"
CC(C)c1ccc(Cn2ccc3c4c(N)nc(NC5CC5)nc4ccc32)cc1,Potency,[1],active: 3.32 µM
same,Potency,[3],active: 12.2 µM
same,Potency,[4],active: 18.7 µM
same,Potency,[6],active: 14800 nM
same,Potency,NIH3T3,active: 4.69 µM
same,Potency,WaGa,active: 9.35 µM
NC(=O)c1c(OCc2c(F)cc(Br)cc2F)nsc1NC(=O)NCCCCN1CCCC1,Potency,[3],active: 24.3 µM
same,Potency,[5],"inconclusive: 2.96 µM [cytotoxic, partial curve]"
same,Potency,[11],inactive
same,Potency,[7],"inconclusive: 37.2 µM [cytotoxic, single point]"
same,Potency,[10],"inconclusive: 33.2 µM [cytotoxic, partial curve, poor fit]"
same,Potency,KB-3-1,"active: 9.35 µM and inconclusive: 29.1 µM [inhibitor, single point]"
same,Potency,NIH3T3,active: 235 nM and active: 2.06 µM
same,Potency,MCC-13,"inconclusive: 23.5 µM [inhibitor, partial curve]"
same,Potency,UISO,"inconclusive: 33.2 µM [inhibitor, single point]"
same,Potency,WaGa,"inconclusive: 0.148 µM [inhibitor, full curve]"
same,Potency,SKOV3,"inconclusive: 28.2 µM [cytotoxic, partial curve]"
